In PMC4336329 (PLoS ONE, 2015):
The whole screen tested about 310,000 compounds, of which about 2,200 (0.71%) showed an effect of 50% or more. Effects have a minus sign here. The list shows a part of the results.

target: human ether-à-go-go-related gene (hERG) potassium channel (human, UniProt Q12809); assay: primary screen, population patch clamp on CHO cells stably expressing hERG
Sequence (Q12809 whole entry, looked up): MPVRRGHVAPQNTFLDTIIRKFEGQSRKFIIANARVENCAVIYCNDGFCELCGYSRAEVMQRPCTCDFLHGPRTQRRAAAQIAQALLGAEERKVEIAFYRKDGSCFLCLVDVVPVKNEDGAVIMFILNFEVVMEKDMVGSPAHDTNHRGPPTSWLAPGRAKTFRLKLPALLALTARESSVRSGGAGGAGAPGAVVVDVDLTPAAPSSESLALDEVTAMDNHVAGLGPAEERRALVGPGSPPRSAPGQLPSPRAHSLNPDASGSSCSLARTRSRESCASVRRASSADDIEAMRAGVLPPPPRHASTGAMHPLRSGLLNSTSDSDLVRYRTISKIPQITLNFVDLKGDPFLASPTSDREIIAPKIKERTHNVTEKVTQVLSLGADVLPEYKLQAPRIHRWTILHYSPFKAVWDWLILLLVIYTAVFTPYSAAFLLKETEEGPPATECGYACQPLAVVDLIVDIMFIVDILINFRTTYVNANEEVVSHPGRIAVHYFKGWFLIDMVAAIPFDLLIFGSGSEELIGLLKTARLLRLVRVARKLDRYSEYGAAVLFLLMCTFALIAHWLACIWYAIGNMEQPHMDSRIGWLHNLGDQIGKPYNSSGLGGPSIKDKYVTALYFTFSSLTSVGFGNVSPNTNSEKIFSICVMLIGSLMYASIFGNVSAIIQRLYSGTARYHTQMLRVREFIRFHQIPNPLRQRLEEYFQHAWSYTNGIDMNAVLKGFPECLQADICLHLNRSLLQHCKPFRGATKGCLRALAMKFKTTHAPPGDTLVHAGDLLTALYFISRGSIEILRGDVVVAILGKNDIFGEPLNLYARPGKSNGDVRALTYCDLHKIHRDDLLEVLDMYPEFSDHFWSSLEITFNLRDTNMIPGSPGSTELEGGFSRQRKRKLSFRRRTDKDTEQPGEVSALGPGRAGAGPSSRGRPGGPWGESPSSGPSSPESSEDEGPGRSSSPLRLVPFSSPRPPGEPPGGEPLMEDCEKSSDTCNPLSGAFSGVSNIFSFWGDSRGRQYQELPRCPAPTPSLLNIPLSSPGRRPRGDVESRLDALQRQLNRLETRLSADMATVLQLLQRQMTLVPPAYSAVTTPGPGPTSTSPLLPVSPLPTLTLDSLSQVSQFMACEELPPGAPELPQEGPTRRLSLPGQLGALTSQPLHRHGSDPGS

Structure (SMILES) | hERG current change (%, negative = inhibition) at 1uM [%]
CCOC(=O)CC(=O)CSc1ncnc2c1cnn2-c1ccccc1 | 6.25
CCNC(=O)C1CC(=O)N(Cc2ccc3c(c2)OCO3)C(=Nc2ccc(F)cc2)S1 (stereo not drawn) | 11.6
Nc1cc(Cl)ccc1Nc1ccncc1 | 7.92
Cc1cccc(S(=O)(=O)N2CCC(CO)(Cc3ccccc3)CC2)c1 | 10.3
CC1=CC2=NC(=O)/C(=C\c3cccn3CCOc3cccc(C)c3)C(=N)N2O1 | 13.7
CCc1ccc(-n2c(=O)c3c(C)c(C)sc3n(CC(=O)NCC3CCCO3)c2=O)cc1 (stereo not drawn) | 6.87
COc1cc2c(cc1NC(=O)C(C)OC(=O)C1CC(=O)N(Cc3ccco3)C1)oc1ccccc12 (stereo not drawn) | 13.5
Cc1ccc(S(=O)(=O)N2CCN(Cc3nc4sc5c(c4c(=O)[nH]3)CCCC5)CC2)cc1 | 8.82
O=C(CSc1ncn(-c2ccccc2)n1)N1CCN(c2ccccc2)CC1 | 4.85
CCCCN(C)C(=O)c1ccc2c(c1)S(=O)(=O)c1ccccc1C2=O | 2.56
Cc1cccn2cc(-c3cccc(S(=O)(=O)N4CC(C)OC(C)C4)c3)nc12 (stereo not drawn) | 20.8
COc1ccccc1-c1oc2ccccc2c1-c1ccc2cc[nH]c2c1 | 11.6
CN1C(=O)CCC1(O)c1ccccc1 (stereo not drawn) | 5.04
CCOC(=O)c1ccc(NC(=O)CCS(=O)(=O)Cc2ccccc2)cc1 | 10.8
CCn1nc(NC(=O)COC)c2cc3cccc(C)c3nc21 | 11.8
CC1Cc2ccccc2N1C(=O)CSc1nnc(CSc2ncccn2)n1C (stereo not drawn) | -9.35
CN(C)c1ccc(C2(O)C(=O)c3ccccc3C2=O)cc1 | 12.5
O=C(CCn1c(=O)[nH]c2ccsc2c1=O)N1CCN(c2cccc(Cl)c2)CC1 | -6.52
OCCC1CN(Cc2cn[nH]c2C2CCCCC2)CCN1C1CCCCC1 (stereo not drawn) | 7.95
C[C@H]1C(=O)N(C)CCN1C(=O)c1cccc(OC2CCN(CC(C)(C)C)CC2)c1 | 16.6
CCOc1ccc(S(=O)(=O)N2CCCC(C(=O)NCc3ccccc3)C2)cc1 (stereo not drawn) | 3.16
COc1cc(NC(=O)CN(C)Cc2cccc(F)c2)c(C)cc1[N+](=O)[O-] | 18.1

Structure (SMILES) | hERG current change (%, negative = inhibition) at 1uM [%]
CCCCn1nnnc1SCC(=O)NC1CCCCC1 | 17.6
CC(C)(C)c1ccc(OCC(=O)NCCN2CCCC2)cc1.Cl | 0.612
Cc1c(NC(=O)c2cccc(NC(=O)COc3ccccc3)c2)c(=O)n(-c2ccccc2)n1C | 16.1
COc1ccc(NC(=O)CNC(=O)c2sc3ccccc3c2Cl)c(OC)c1 | 7.35
COc1cccc(C=N[C@@H](CO)[C@@H](O)c2ccc([N+](=O)[O-])cc2)c1O | 5.58
Cc1cc(C(=O)OCC(=O)N(C)C2CCS(=O)(=O)C2)c(C)n1-c1ccccc1 (stereo not drawn) | 6.27
COc1ccc(-n2c(=O)[nH]cc(C(=O)Nc3ccc4c(c3)OCCO4)c2=O)cc1OC | -4.94
CC(C)(C)c1ccc(OCCC(=O)OCC(=O)NC2CCCCC2)cc1 | 3.52
COc1cc(C2Nc3ccc4ncccc4c3C3=C2C(=O)CCC3)ccc1O (stereo not drawn) | 16.9
CC(=O)OCC1=C(C(=O)O)N2C(=O)C(NC(=O)Cn3nc(C(F)F)c(Cl)c3C)C2SC1 (stereo not drawn) | 8.75
Cc1ccc(S(=O)(=O)CCc2nnc(NC(=O)C3CCCO3)s2)cc1 (stereo not drawn) | 12
CC(C)C(OC(=O)c1cccc(S(=O)(=O)NCC(F)(F)F)c1)C(=O)NC(N)=O (stereo not drawn) | 9.33
S=c1[nH]nc(-c2ccccc2)n1/N=C/c1cccc(Br)c1 | 18.7
CNC(=O)COC(=O)c1cc(NC(=O)c2ccco2)c(OC)c(OC)c1 | 7.36
Cc1ccccc1NC(=S)N(CCN(C)C)C(C)c1ccco1 (stereo not drawn) | 4.64
Cc1ccccc1S(=O)(=O)N1CC(C(=O)O)=CC[C@H]1c1ccc(Cl)cc1 | 17.5
Nc1ccc(S(=O)(=O)Nc2nc3ccccc3o2)cc1 | 16.3
Cc1nonc1N1CCN(Cc2cn[nH]c2-c2ccc(F)cc2F)CC1 | 8.81
O=C(COC(=O)CN1C(=O)C2CCCCC2C1=O)NNC(=O)c1ccc(Cl)cc1 (stereo not drawn) | 15.3
CC(C)N(CC#CCC(O)(c1ccccc1)C1CCCC1)CCO (stereo not drawn) | -0.869
Cc1cccc(NC(=O)NCc2ccccn2)c1 | 7.83
CC1=CCC(C(=O)O)(C(=O)N/N=C/c2cccs2)C(c2ccc(Cl)cc2)C1 (stereo not drawn) | -7.18

Structure (SMILES) | hERG current change (%, negative = inhibition) at 1uM [%]
O=C(c1ccc([N+](=O)[O-])o1)N1CCc2ccccc2C1 | 4.04
COc1ccc(N=NC2=C(O)CC(C)(C)CC2=O)cc1 | 3.63
COc1ccc(NC(=O)c2ccc(NC(=O)c3ccncc3)cc2)cc1 | 19.3
COc1ccc(OCC(=O)OCC(=O)NC2CC2)cc1 | 17.3
CN1C(=S)N2CCCN2C1c1ccccc1 (stereo not drawn) | 4.36
CSc1nnc2c(n1)[nH]c1c(C)cccc12 | 6.15
COCCN(Cc1cc2cccc(C)c2n2nnnc12)C(=O)C(F)(F)F | 2.16
Cc1noc(C)c1C(=O)NC(C)C1CCCO1 (stereo not drawn) | 8.83
CN(C)C(=O)c1cn(-c2ccccc2)nc1-c1cc2ccccc2o1 | 4.33
Cc1cccc2sc(NC(=O)[C@@H]3CCCN3C(=O)c3cccs3)nc12 | 12.1
CC(C)Cn1c(N)c(C(=O)COC(=O)CCc2nc3ccccc3s2)c(=O)n(C)c1=O | -9.57
COc1cccc(-c2nn(-c3ccccc3)cc2CN(C)Cc2c(C)nc3ccccn23)c1 | 2.41
CCOc1ccc(N2CC(C(=O)Nc3cc(Cl)ccc3-n3cncn3)CC2=O)cc1 (stereo not drawn) | -25.8
O=C(COC(=O)CNC(=O)c1ccc(Cl)cc1Cl)Nc1cccc(S(=O)(=O)N2CCCC2)c1 | 9.95
CC1CCCCC1NC(=O)c1nn(C)c(=O)c2ccccc12 (stereo not drawn) | 2.67
O=C(CSc1nnc(-c2ccccc2)o1)NC1CCCC1 | -3.97
COc1ccccc1CCNC1CCCC(C)C1 (stereo not drawn) | 11.5
COc1ccccc1OCC(O)CN1CCN(CC(=O)Nc2c(C)cccc2C)CC1 (stereo not drawn) | -1.27
Cc1ccc(NC(=O)c2cccnc2C(=O)Nc2ccc(C)cc2)cc1 | 16.6
CC(C)C(=O)Nc1cccc(C(=O)Nc2cc([N+](=O)[O-])ccc2F)c1 | 8.26
CCOc1ccc(-n2c(-c3ccc(Cl)cc3)c[n+]3c2SCC3)cc1.[Br-] | -60.8
COc1ccc(C(=O)Nc2ccc(N3CCCC3)cc2)cc1 | -2.01

Structure (SMILES) | hERG current change (%, negative = inhibition) at 1uM [%]
Cc1nn(CC(=O)N2CCN(c3ccccn3)CC2)c(=O)c2cc3sccc3n12 | 17.6
O=C(COC(=O)c1cccnc1Cl)Nc1ccccc1OC(F)F | 9.23
Cc1ccccc1NC(=O)N1CCC(NC(=O)C2CCCCC2)CC1 | 4.23
O=C1CSC(c2ccccc2)N1CC(O)c1ccc([N+](=O)[O-])cc1 (stereo not drawn) | 5.79
COc1cccc(C2CC(c3ccccc3)n3ncnc3N2)c1 (stereo not drawn) | 1.25
C#CCOCCOCCOCCNc1nc(N2CCN(C(=O)[C@H](CCCC[NH3+])n3cc(CCCC)nn3)CC2)nc(N2CCN(C(=O)[C@H](Cc3ccc(O)cc3)n3cc(CCO)nn3)CC2)n1.[Cl-] | 10.8
CC(C)c1nnc(NC(=O)COc2ccc3ccccc3c2)s1 | -6.26
CCN(Cc1ccncc1)C(=O)c1cc(COc2ccc(F)cc2Cl)on1 | 5.72
Fc1ccccc1N1CCN(c2nc(-c3cccs3)nc3ccccc23)CC1 | 2.81
Cc1ccc(N=c2oc3cc(O)ccc3cc2C(N)=O)cc1 | 8.24
Nc1c(C(=O)c2cccs2)sc2nsc(SCCN3CCCCC3)c12 | 11.8
COc1ccc(C2(O)CC3CCC(C2)N3c2nc(C)cc(C)c2C#N)cc1 (stereo not drawn) | 0.0463
O=C(NCCO)C(=O)c1c(-c2ccccc2)cc2ccccn12 | 9.64
O=C(CN1C(=O)C2(OCCCO2)c2ccccc21)NCc1ccccc1 | -7.26
CNC(=O)c1[nH]cnc1C(=O)Nc1ccc(F)cc1 | 8.94
Cc1nn(-c2ccccc2)c(C)c1NC(=O)Cc1cccs1 | 6.36
CCCOc1ccc(C(=O)Nc2cc(S(=O)(=O)N3CCOCC3)ccc2N2CCOCC2)cc1 | -4.81
CCC(=NCCCN1CCOCC1)c1c(O)n(-c2ccccc2C)c(=O)[nH]c1=O | 10.3
CCCS(=O)(=O)c1c(S(=O)(=O)CCC)c2ccc(C(N)=O)cn2c1C(=O)c1ccccc1 | 12.5
Cc1cc(C)cc(NC(=O)CSc2nc3nc(C)cc(C)c3c(=O)[nH]2)c1 | 11.8
CCCCc1cc(=O)oc2cc(C)cc(OCC(=O)NCc3ccncc3)c12 | -73.8
